Test results from the RNAGym collection of RNA variant scans (doi:10.1093/nar/gkz1192).
Read counts are not given, so values of variants with three or more changes are uncertain.

B1: CPEB3 Ribozyme (parent)
chain: UAACAGGGGGCCACAGCAGAAGCGUUCACGUCGCAGCCCCUGUCAGAUUCUGGUGAAUCUGCGAAUUCUGCUGUAUAUCUC

Variants of: B1
Assay: self-cleavage, relative activity (ratio to wild type); higher = more cleavage; in vitro, sequencing
Procedure, shortened: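 Relative activity compares each variant's cleaved/total read fraction with that of the unmutated ribozyme. To get these fractions, barcoded CPEB3 ribozyme libraries from rounds of error-prone PCR were transcribed with T7 RNA polymerase for 5 hours at 37°C and then given 15 min of DNase I treatment before EDTA was added. The RNAs were reverse transcribed with template switching and sequenced on Illumina, and DNA sequencing linked barcodes to variants. A minimum of 5 reads applied, and three batches were averaged.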

Row | Variant | self-cleavage
1 | U41C U48C U60C A77G | 0.21
2 | U41C U48C U80A | 0.99
3 | U41C U49A A56G U60C A64G | 0.23
4 | U41C U49A G63U | 0.59
5 | U41C U49A U54C | 0.28
6 | U41C U49A U69C U74C | 0.53
7 | U41C U49A U80A | 1.06
8 | U41C U49C A56G A57G A64G A65C | 0.12
9 | U41C U49C A56U C62U | 0.11
10 | U41C U49C A57G G73C U78C | 0.74
11 | U41C U49C A64G G70U | 0.17
12 | U41C U49C A64G U67C | 0.08
13 | U41C U49C A75G | 0.32
14 | U41C U49C G52A | 0.73
15 | U41C U49C G53U A65G | 0.17
16 | U41C U49C G53U U54A U67C | 0.27
17 | U41C U49C U51A | 0.7
18 | U41C U49C U51A U54A G61A U69A U74A | 0.31
19 | U41C U49C U51C A64G | 0.15
20 | U41C U49C U58A U74A | 0.13
21 | U41C U49C U60A A64G | 0.2

Row | Variant | self-cleavage
22 | U41C U49C U60C | 0.16
23 | U41C U49C U66G U69C | 0.45
24 | U41C U49C U69A | 0.25
25 | U41C U49C U72C | 0.27
26 | U41C U49C U74C U80C | 0.74
27 | U41C U49C U78A | 0.33
28 | U41C U51A A56G U67A U76C | 0.29
29 | U41C U51A A56G U80C | 1.06
30 | U41C U51A A64U | 0.23
31 | U41C U51A A64U U66C U74C U78A | 0.2
32 | U41C U51A A77G U80C | 1.15
33 | U41C U51A C68A | 0.44
34 | U41C U51A U66A U78A | 0.65
35 | U41C U51A U67C | 0.32
36 | U41C U51A U69A U76C | 0.84
37 | U41C U51A U72C | 1.14
38 | U41C U51C A56G C59U U72A | 0.23
39 | U41C U51C A57G A64G A65G | 0.31
40 | U41C U51C A57G U58C | 0.41
41 | U41C U51C A64G | 0.8
42 | U41C U51C A64U A77G | 0.41

Row | Variant | self-cleavage
43 | U41C U51C A75U | 0.68
44 | U41C U51C U54C U69A U80C | 0.64
45 | U41C U51C U58A | 0.29
46 | U41C U51C U58A A64C | 0.14
47 | U41C U51C U60A A64U U69C | 0.47
48 | U41C U51C U66C U80C | 0.43
49 | U41C U51C U72C | 1.18
50 | U41C U51C U76A U78C | 1.07
51 | U41C U51C U78A | 1.11
52 | U41C U51G A64G U80A | 0.85
53 | U41C U54A A57G U69G | 0.67
54 | U41C U54A U58G A64U | 0.13
55 | U41C U54A U72C | 1.21
56 | U41C U54A U74A | 1.23
57 | U41C U54A U80C | 1.12
58 | U41C U54C A56G | 0.48
59 | U41C U54C A57G G70A U74G A75G | 0.1
60 | U41C U54C A57G U58C U72C | 0.4
61 | U41C U54C A57G U58C U76A U78C | 0.16
62 | U41C U54C A64U A77U U78C | 0.26
63 | U41C U54C A65U U76C | 0.13

Row | Variant | self-cleavage
64 | U41C U54C U60C A64G | 0.3
65 | U41C U54C U74C | 1.19
66 | U41C U54C U78C | 0.98
67 | U41C U54G U66C | 0.15
68 | U41C U58A A64G U80C | 0.2
69 | U41C U58A A65U U67C U74C U80A | 0.22
70 | U41C U58A U60A | 0.14
71 | U41C U58A U74C U80A | 0.92
72 | U41C U58C U60A U80C | 0.18
73 | U41C U58C U60C | 0.24
74 | U41C U58C U69A U80A | 0.13
75 | U41C U58C U80C | 0.87
76 | U41C U60A A64G A77G | 0.28
77 | U41C U60A A64G U74A | 0.59
78 | U41C U60A U74A U76C | 0.96
79 | U41C U60A U80A | 0.68
80 | U41C U60A U80C | 0.7
81 | U41C U60A U80G | 0.78
82 | U41C U60C A64G U72G A77C | 0.36
83 | U41C U60C U66C | 0.31
